# Measured values taken from PubChem BioAssay AID588591 (National Center for Advancing Translational Sciences (NCATS), 2011).
# Out of some 390,000 compounds screened, about 4,700 (1.2%) were called active. The shares of active, inactive and inconclusive entries below differ from those in the screen. Calls come from the whole dose curve; as a rule, active = well fitted inhibition curve with a large enough effect; inconclusive = small, poorly fitted or top-dose-only effect, or another doubt; inactive = no such curve, though single readings can be large or run the other way. Potencies beside an inconclusive call are fits to weak or partial responses and may not hold up.
# Target: DNA polymerase eta (Homo sapiens) (UniProt Q9Y253)
# Chain of UniProt Q9Y253 (Q9Y253 whole entry, looked up): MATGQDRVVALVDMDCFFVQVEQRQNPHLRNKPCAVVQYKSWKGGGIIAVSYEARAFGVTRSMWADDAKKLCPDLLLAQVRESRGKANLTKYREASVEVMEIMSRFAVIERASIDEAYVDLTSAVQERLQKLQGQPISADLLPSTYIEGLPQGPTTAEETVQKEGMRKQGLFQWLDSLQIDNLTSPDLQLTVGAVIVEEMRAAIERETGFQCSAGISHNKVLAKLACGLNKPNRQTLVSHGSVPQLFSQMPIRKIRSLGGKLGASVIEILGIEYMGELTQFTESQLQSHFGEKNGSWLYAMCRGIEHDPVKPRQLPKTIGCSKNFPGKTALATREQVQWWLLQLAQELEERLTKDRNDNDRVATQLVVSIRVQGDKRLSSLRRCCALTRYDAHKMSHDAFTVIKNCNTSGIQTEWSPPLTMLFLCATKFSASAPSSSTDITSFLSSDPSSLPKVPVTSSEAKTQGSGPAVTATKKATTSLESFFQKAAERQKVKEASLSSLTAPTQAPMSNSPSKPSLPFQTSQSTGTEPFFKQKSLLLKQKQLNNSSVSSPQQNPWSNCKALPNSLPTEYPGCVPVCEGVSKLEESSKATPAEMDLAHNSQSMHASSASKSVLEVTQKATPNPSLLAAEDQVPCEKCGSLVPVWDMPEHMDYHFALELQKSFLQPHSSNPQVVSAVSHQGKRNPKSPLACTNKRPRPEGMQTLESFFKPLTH
# Assay: qHTS for Inhibitors of Polymerase Eta
# Conditions: recombinant Pol eta, fluorescent DNA replication assay; series mostly up to 114 µM; activity change, negative = inhibition: at the top concentration
# Method in brief: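 Pol eta at 10 nM preincubated with compounds 15 min at room temperature; reaction started with fluorescent substrate (50 nM final) and read kinetically at 0 and 10 min.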
# % is set by controls: 0 for no effect and ±100 for the full control effect; potency is the fitted concentration of half-maximal effect; tags give direction and shape of the fitted curve.
Structure (SMILES),"activity change, negative = inhibition",Potency
O=Nc1ccc(NOC(=O)c2ccccc2Br)cc1,inactive: 6.08%,
COc1cc(S(=O)(=O)N2CCN(c3ccccc3)CC2)ccc1F,,"inconclusive: 14.1 µM [inhibitor, partial curve, poor fit]"
CCOc1ccc(NC(=O)CN(C)C(=O)c2cc(-c3ccco3)nc3ccccc23)cc1OCC,inactive: -9.43%,
Cn1c(SCC(=O)Nc2nncs2)nnc1C1CC1,,active: 22.4 µM
Cc1cc(C)n(C(=O)N(c2ccccc2)c2ccccc2)n1,inactive: -4.18%,
Oc1[nH]c2ccccc2c1N=Nc1nc2ccccc2s1,,"inconclusive: 10 µM [inhibitor, partial curve]"
Clc1ccc(-c2nnc(-c3ccco3)nc2N2CCCCC2)cc1,,"inconclusive: 15.8 µM [inhibitor, full curve, poor fit]"
CC(C)(C)n1nc2c(c1NC(=O)COc1ccc(F)cc1)CS(=O)(=O)C2,inactive: -4.23%,
CCCCNc1c(-c2ccc(SC(C)CC)c(OC)c2)nc2ccc(C)cn12 (stereo not drawn),,"inconclusive: 25.1 µM [inhibitor, partial curve, poor fit]"
CC(=O)c1cccc(NC(=O)CSc2ccc(-c3ccco3)nn2)c1,,"inconclusive: 20 µM [inhibitor, full curve]"
O=[N+]([O-])c1ccccc1S(=O)(=O)Nc1ccc(-c2ccc3nncn3n2)cc1,,"inconclusive: 39.8 µM [inhibitor, partial curve, poor fit]"
Cc1nc2nc(SCc3ccccc3)[nH]n2c(=O)c1C,,"inconclusive: 25.1 µM [inhibitor, single point]"
Cc1ccc(NC(=O)Cn2c(=O)n(Cc3ccccc3)c(=O)c3c2c2cc(C)ccc2n3C)cc1,inactive: -27.3%,
Cc1ccc(-c2nnc(SCC(=O)N/N=C/c3ccc(C)s3)n2-c2ccccc2)cc1,,"inconclusive: 17.8 µM [inhibitor, full curve, poor fit]"
Cc1sc2nc(SCC(=O)NCc3ccco3)n(C)c(=O)c2c1C,,"inconclusive: 35.5 µM [inhibitor, partial curve, poor fit]"
COc1ccc(OC)c(Nc2cc3ccccc3c(=O)[nH]2)c1,,"inconclusive: 56.2 µM [inhibitor, partial curve, poor fit]"
Cc1noc(C)c1S(=O)(=O)NCCc1csc2nc(-c3ccc(Cl)cc3)nn12,inactive: 0.251%,
COc1ccc(S(=O)(=O)NNC(=O)C(=O)NNc2ccccn2)cc1,inactive: -14.5%,
CC(C)COc1ccc(-c2nn(-c3ccccc3)cc2/C=C2/SC(=S)N(CC(=O)O)C2=O)cc1,,active: 28.2 µM
CCC1CCCCN1S(=O)(=O)c1cc(C(=O)Nc2ccc(C)c(F)c2)ccc1F (stereo not drawn),inactive: -12.7%,
Cc1ccc(CNC(=O)c2cnn(-c3cccc(C)c3)c2C2CCN(C(=O)OC(C)(C)C)CC2)cc1,inactive: -2.8%,
Cc1ccc(CN2CC(C(=O)Nc3ccc(S(=O)(=O)Nc4cc(C)nc(C)n4)cc3)CC2=O)cc1 (stereo not drawn),,"inconclusive: 31.6 µM [inhibitor, partial curve, poor fit]"

Structure (SMILES),"activity change, negative = inhibition",Potency
Cc1ccc(S(=O)(=O)C2C(=O)N(C)C3(C)CC2c2ccccc2O3)cc1C (stereo not drawn),,"inconclusive: 79.4 µM [inhibitor, partial curve, poor fit]"
Cc1cc(S(=O)(=O)N2CCN(c3ccccn3)CC2)c(C)cc1Cl,,"inconclusive: 89.1 µM [inhibitor, partial curve, poor fit]"
CN(C)c1ccc(/C=C2/SC(=O)N(CCN=C3NS(=O)(=O)c4ccccc43)C2=O)cc1,,"inconclusive: 15.8 µM [inhibitor, partial curve]"
COC(=O)C(C)Sc1nc2ccsc2c(=O)n1Cc1ccccc1 (stereo not drawn),,"inconclusive: 89.1 µM [inhibitor, partial curve, poor fit]"
CCOc1ccc(NC(=O)C2CCCN(S(=O)(=O)c3c(C)noc3/C=C/N(C)C)C2)cc1 (stereo not drawn),inactive: -19.6%,
COc1ccc(NC(=O)Nc2cccc([N+](=O)[O-])c2)cc1Cl,,"inconclusive: 25.1 µM [inhibitor, full curve, poor fit]"
CCc1ccccc1NC(=O)c1nnn(Cc2ccc(Cl)cc2)c1N,inactive: -3.74%,
COc1ccc(OC)c(CNC(=O)c2cnc3c(C)cccn3c2=O)c1,inactive: 2.81%,
Cc1cccc(Nc2nnc(SCC(O)=C(C#N)c3nc4ccccc4[nH]3)s2)c1,,"inconclusive: 39.8 µM [inhibitor, partial curve, poor fit]"
COC(=O)c1ccccc1-c1ccc(/C=N/Nc2nc(N3CCCC3)nc(N3CCCC3)n2)o1,,"inconclusive: 20 µM [inhibitor, partial curve, poor fit]"
CCN(CC)c1ccc(C(=O)OCC(=O)Nc2sccc2C#N)cc1,,"inconclusive: 31.6 µM [inhibitor, single point]"
O=C(Cc1cccs1)N1CCN(c2cccc(Cl)c2)CC1,,"inconclusive: 35.5 µM [inhibitor, partial curve, poor fit]"
O=C(O)c1cccc2c1C(=O)c1ccccc1-2,inactive: 0.467%,
CC1CCC(NC(=O)C(Cc2ccccc2)n2cccc2)CC1 (stereo not drawn),,"inconclusive: 89.1 µM [inhibitor, partial curve, poor fit]"
O=C(O)Cc1ccc(S(=O)(=O)N2CCCC2)s1,,active: 7.08 µM
COc1ccc(CN(C(=O)c2cc3ccccc3oc2=O)C2CCS(=O)(=O)C2)cc1OC (stereo not drawn),,inactive
Cc1ccc(NC(=O)Cn2c(=O)oc3cc(S(=O)(=O)N4CCCCC4)ccc32)c(Cl)c1,,"inconclusive: 100 µM [inhibitor, single point]"
Cc1cccc(NC(=O)c2nc[nH]c2C(=O)N[C@@H](C)C(=O)OCc2ccccc2)c1,,"inconclusive: 89.1 µM [inhibitor, partial curve, poor fit]"
CCOC(=O)C1=C(C)NC(=O)NC1c1ccc(C)o1 (stereo not drawn),,"inconclusive: 20 µM [inhibitor, partial curve, poor fit]"
O=C(NCc1cccnc1)c1cc(C(=O)NCc2cccnc2)cc([N+](=O)[O-])c1,inactive: -15%,
Oc1ccc(Br)cc1CNc1cccc2cccnc12,,"inconclusive: 39.8 µM [inhibitor, partial curve, poor fit]"
